According to PubChem BioAssay AID686979 (National Center for Advancing Translational Sciences (NCATS), 2013):
Among all 420,000 compounds or so, about 50,000 (12%) were called active. Inconclusive means that the source gave no clear call. Such entries were picked first, then a sample of the others. Calls follow the shape of the dose curve; as a rule, active = well fitted inhibition curve with a large enough effect; inconclusive = small, poorly fitted or top-dose-only effect; inactive = flat fitted curve, though single readings scatter. Potencies of inconclusive entries are left out as doubtful fits.

experiment: qHTS for Inhibitors of human tyrosyl-DNA phosphodiesterase 1 (TDP1): qHTS in cells in presence of CPT; details: chicken DT40 Tdp1-/-;hTDP1 cells + 20 nM CPT, ATP luminescence, 48 h; activity change, negative = growth inhibition: at 46.2 µM (top of the series) unless noted; also: nearly all actives have a fitted effect of over 55% in size
Procedure, shortened: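 Chicken DT40 Tdp1-/- cells stably complemented with human TDP1 were seeded at 400 cells/well in medium containing 20 nM camptothecin, exposed to pin-transferred compounds, and grown at 37 °C for at least 48 hr. Viability was read as ATP luminescence.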
% is scaled to controls: 0 for no effect and ±100 for the full control effect; potency is read from the fitted curve at half-maximal effect; tags tell the direction and shape of the fitted curve.

Compound	activity change, negative = growth inhibition	Potency
Cc1ccc(S(=O)(=O)n2nc(C)c(C#N)c2N)cc1	inactive: -29.3%	
CC1=C(C(=O)OCC2CCCCC2)C(c2ccc(Cl)cc2)CC(=O)N1 (configuration not stated)		inconclusive [inhibitor, single point]
Cc1cc(C)cc(NC(=O)COC(=O)CCCNC(=O)c2ccc(Cl)cc2)c1	inactive: -14.1%	
C[C@@H]1CN([C@H](C)CO)C(=O)c2c(c3ccccc3n2C)-c2ccccc2CO[C@H]1CN(C)Cc1ccc(C(F)(F)F)cc1		inconclusive [inhibitor, single point]
COc1cccc(NC(=O)NC2CCCc3ccccc32)c1 (configuration not stated)	inactive: -22.3%	
Cc1csc(NC(=O)CCSCCc2ccccn2)n1	inconclusive: -33.7% [inhibitor]	
CCN(Cc1cccc(OC)c1)CC1CCCN(CCc2cccc(OC)c2)C1 (configuration not stated)		active: 14.6 µM
CCOC(=O)c1ccc(-c2ccc(C(=O)Nc3cccnc3)o2)cc1		inconclusive [inhibitor, single point]
Cn1c(=O)n(C)c2cc([N+](=O)[O-])c(N3CCN(C(=O)c4cccc(Cl)c4)CC3)cc21		inconclusive [inhibitor, single point]
Cc1cc2c(cc1C)NC(c1ccccn1)C1=C(CC(C)(C)CC1=O)N2 (configuration not stated)	inactive: -14.7%	
COc1cc(OC)cc(C(=O)NCC(=O)NCCN2C(=O)S/C(=C\c3ccc4c(c3)OCO4)C2=O)c1		inconclusive [inhibitor, single point]
O=C(NNC(=O)c1ccc(-c2ccccc2)cc1)Nc1ccc(F)cc1F	inactive: -11.6%	
COc1ccccc1CC1(C)C(=O)Nc2c(Cl)cccc21 (configuration not stated)		inconclusive [inhibitor, single point]
O=C1c2ccccc2C(=O)N1CN(C(=O)COc1ccc(Cl)cc1Cl)c1cccc(F)c1		inconclusive [inhibitor, single point]
CCc1ccc(N(CC)C(=O)Cn2nc(Cc3cccnc3)c3ccccc3c2=O)cc1	inactive: -26.5%	
C=CCc1c(C)nc(-c2ccccc2)nc1Nc1ccc(O)cc1		inconclusive [inhibitor, single point]
CCOC(=O)c1cc(C)n(CC2CCC(C(=O)Nc3ccccc3OC)CC2)c1C (configuration not stated)		active: 18.4 µM
NNc1nc2c(F)cc(F)cc2s1		inconclusive [inhibitor, single point]
CSc1ncc(C(=O)Nc2ccc(C)c(Cl)c2)c(-c2ccccc2)n1		active: 23.1 µM
CCN(CC)CCn1c(NC(=O)c2ccccc2O)nc2ccccc21		inconclusive [inhibitor, single point]
CC1CN(c2nc(Nc3ccccc3)nc(N)c2[N+](=O)[O-])CC(C)O1 (configuration not stated)		inconclusive [inhibitor, single point]
CCC1(CC)Cc2ccccc2-c2nc(-c3ccccc3)oc(=O)c21		inconclusive [inhibitor, single point]
Cc1cc(C)n2nc(SCCCC(=O)c3ccc(F)cc3)nc2n1		inconclusive [inhibitor, single point]
CCC(C)(C)C1CCC2(CC1)NC(=O)N(CC(=O)NC(C)CCc1ccccc1)C2=O (configuration not stated)		inconclusive [inhibitor, single point]

Compound	activity change, negative = growth inhibition	Potency
CCCCc1c(C)nc2ccc(C)cc2c1SCCC(=O)O		inconclusive [inhibitor, partial curve, poor fit]
O=C(COc1ccc(F)cc1Cl)Nc1cccc(S(=O)(=O)N2CCCC2)c1		inconclusive [inhibitor, single point]
Cc1ccc2oc(-c3ccc(C)c(NC(=O)C(C)(C)Oc4ccc(Cl)cc4)c3)nc2c1		inconclusive [inhibitor, single point]
Cc1ccc(C(=O)NC(=S)N2CC(C)OC(C)C2)cc1[N+](=O)[O-] (configuration not stated)		inconclusive [inhibitor, single point]
COc1ccc(Cl)cc1NC(=O)N(C)CCc1c(C)nn(C)c1C	inactive: -20.2%	
O=C(O)C1C2CC(C(Br)C2Br)C1C(=O)O (configuration not stated)	inactive: 7.9%	
CCCN(C)C[C@@H]1OCc2cnnn2CCCC(=O)N([C@H](C)CO)C[C@H]1C	inactive: -8.48%	
Cn1c(SCc2ccccc2Cl)nc2ccccc21		inconclusive [inhibitor, partial curve, poor fit]
COc1cccc(Cn2c(CNC(=O)Cc3cccc(C)c3)nc3cccnc32)c1		inconclusive [inhibitor, single point]
O=C(CC(=O)OCc1ccccc1)OCc1ccccc1	inactive: -16.3%	
CCN(Cc1ccncc1)C(=O)c1ccccc1NS(=O)(=O)c1ccc(F)cc1	inactive: 11.1%	
CC(=O)NC1CCC(OC(=O)Nc2ccccc2)CC1 (configuration not stated)	inactive: 0.25%	
Oc1ccc(/C=N/Nc2ccc(C(F)(F)F)cn2)cc1	inconclusive: -34.1% [inhibitor]	
CS(=O)(=O)N1CCC2(CC1)CN(C(=O)Nc1cccc(F)c1)C2	inactive: -6.04%	
CCNC(C(=O)c1c[nH]c2c(CC)cccc12)c1ccccc1 (configuration not stated)		inconclusive [inhibitor, single point]
COC(=O)CS(=O)(=O)c1ccsc1C(=O)Nc1ccc(F)c(F)c1	inactive: 11.5%	
Cc1ccc(NC(=O)c2cccc3c2C(=O)N(C2CCCCC2)C3)c(C)c1		inactive
Cc1cccnc1C(NC(=O)C1CCN(CCCc2ccccc2)CC1)c1ccc(Cl)cc1 (configuration not stated)		inconclusive [inhibitor, partial curve, poor fit]
O=C(Cc1ccccc1)Nc1ccc(SC(F)F)cc1	inactive: 3.49%	
Cc1cccc(OCCCC(=O)N2CCCc3ccccc32)c1C		inconclusive [inhibitor, partial curve]
COc1ccc(N(CC(=O)Nc2cccc(Cl)c2C)S(=O)(=O)c2c(C)nn(C)c2C)cc1		inconclusive [inhibitor, single point]
COc1ccc(C2=C(C)C(=NCCCN3CCN(c4cc(C)ccc4C)CC3)NS2(=O)=O)cc1		active: 4.61 µM
O=C(Nc1nc2ccccc2s1)c1ccc(F)cc1	inactive: -4.02%	
